According to patent US20260151520A1:

Biological target: Claudin 18.2 (Claudin 18 splice variant 2) (UniProt P56856)
Assay: cell-based or functional assay

B1: Compound F ([177Lu]-Compound C-anti-CLDN 18.2 conjugate of antibody YU574-D03) (antibody, V domains shown)
VH: [about 100 residues not written out]RQVAWLGNWGQGTLVTVSS
VL: DIVMTQSPSSVSASVGDRVTITCRASQGISSWLAWYQQKPGKAPKLLIYAASSLQSGVPSRFSGSGSGTDFTLTISSLQPEDFATYYCQQANSFPLTFGGGTKVDIK
modifications: 177Lu complex of the DOTA chelate-linker Compound C conjugated to the antibody (Compound D, chelate-to-antibody ratio 5.4); residues and chain carrying it not stated
**Q.** B1 was tested. Which internalized at 24 hr post-incubation (internalized radioactivity as a percentage of the total cell-associated activity; MiaPaCa2 K18.2 and PATU8988S cells) did it give?
**A.** The internalized at 24 hr post-incubation (internalized radioactivity as a percentage of the total cell-associated activity; MiaPaCa2 K18.2 and PATU8988S cells) was 35%.
